Results: the supplement of paper PMC6746778
The other results are listed elsewhere or left out. Many values rest on one well or one pass, so single values are uncertain.

Tests used:
Assay in all cases: proliferation Z-score within cell line (SRB, relative to all inhibitors screened on that line); triple-negative breast cancer lines and a kinase inhibitor library; SRB is the sulforhodamine B protein stain; higher = less growth inhibition (more resistant)
Settings in all cases: concentration: 1 µM; 4 days
Bt20 = tested on: Bt20
Bt549 = tested on: Bt549
HCC1143 = tested on: HCC1143
HCC1806 = tested on: HCC1806
HCC1937 = tested on: HCC1937
HCC38 = tested on: HCC38
HCC70 = tested on: HCC70
Hs578T = tested on: Hs578T
MDA-MB-231 = tested on: MDA-MB-231
MDA-MB-435s = tested on: MDA-MB-435s
MDA-MB-436 = tested on: MDA-MB-436
MDA-MB-453 = tested on: MDA-MB-453
MDA-MB-468 = tested on: MDA-MB-468
SKBR7 = tested on: SKBR7
SUM1315MO2 = tested on: SUM1315MO2
SUM149PT = tested on: SUM149PT
SUM159PT = tested on: SUM159PT
SUM185PE = tested on: SUM185PE
SUM229PE = tested on: SUM229PE
SUM52PE = tested on: SUM52PE
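Note: Single-dose primary screen of a 378-member kinase inhibitor library in 96-well plates, with growth read as absorbance of protein-bound SRB dye after TCA fixation.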

| SMILES | proliferation Z-score within cell line (Bt20) | proliferation Z-score within cell line (Bt549) | proliferation Z-score within cell line (HCC1143) | proliferation Z-score within cell line (HCC1806) | proliferation Z-score within cell line (HCC1937) | proliferation Z-score within cell line (HCC38) | proliferation Z-score within cell line (HCC70) | proliferation Z-score within cell line (Hs578T) | proliferation Z-score within cell line (MDA-MB-231) | proliferation Z-score within cell line (MDA-MB-435s) | proliferation Z-score within cell line (MDA-MB-436) | proliferation Z-score within cell line (MDA-MB-453) | proliferation Z-score within cell line (MDA-MB-468) | proliferation Z-score within cell line (SKBR7) | proliferation Z-score within cell line (SUM1315MO2) | proliferation Z-score within cell line (SUM149PT) | proliferation Z-score within cell line (SUM159PT) | proliferation Z-score within cell line (SUM185PE) | proliferation Z-score within cell line (SUM229PE) | proliferation Z-score within cell line (SUM52PE) |
| --- | --- | --- | --- | --- | --- | --- | --- | --- | --- | --- | --- | --- | --- | --- | --- | --- | --- | --- | --- | --- |
| Cc1nc(Nc2n[nH]c3c2CN(C(=O)N[C@H](CN(C)C)c2ccccc2)C3(C)C)c2sccc2n1 | -1.1 | -2.83 | -2.46 | -1.68 | -0.752 | -1.18 | -1.98 | -2.74 | -2.47 | -2.29 | -1.75 | -1.61 | -2.27 | -2.51 | -1.36 | -1.63 | -1.84 | -1.8 | -1.89 | -1.65 |
| Cc1cc(Nc2cc(N3CCN(C)CC3)nc(Sc3ccc(NC(=O)C4CC4)cc3)n2)n[nH]1 [VX-680 (Tozasertib, MK-0457)] | -1.28 | -1.02 | 0.707 | -0.366 | 0.815 | -1.14 | 0.72 | -1.15 | -1.47 | -1.5 | 0.364 | -0.657 | -1.74 | -0.989 | -0.5 | -0.449 | 0.551 | -0.619 | -1.13 | -1.08 |
| CN(C)Cc1cccc(N=C(c2ccccc2)c2c(O)[nH]c3cc(C(=O)N(C)C)ccc23)c1 | 0.327 | 0.721 | 1.03 | 0.37 | 0.839 | 0.659 | 0.838 | 0.701 | 0.561 | 0.86 | 1.29 | 0.863 | 0.692 | 0.153 | 0.452 | 0.906 | 0.677 | 0.152 | 0.523 | 0.162 |
| CCN(CC)CCCCNc1ncc2cc(-c3cc(OC)cc(OC)c3)c(NC(=O)NC(C)(C)C)nc2n1 | 0.785 | -0.339 | -0.585 | 0.578 | 0.0557 | 0.593 | 0.302 | 0.211 | 0.985 | 0.947 | 0.263 | -0.414 | 1.02 | 0.671 | -1.31 | 0.545 | 0.755 | -1.95 | 0.487 | -1.45 |
| CS(=O)(=O)CCNCc1ccc(-c2ccc3ncnc(Nc4ccc(OCc5cccc(F)c5)c(Cl)c4)c3c2)o1 | 0.257 | 0.369 | 0.537 | -0.869 | 0.615 | 0.433 | 0.339 | 0.58 | 1.21 | 0.737 | 0.465 | -0.348 | -0.489 | -0.896 | 0.426 | 0.162 | 0.432 | 0.248 | -0.134 | 0.779 |
| CNC(=O)c1c(F)cccc1Nc1nc(Nc2cc3c(cc2OC)CCN3C(=O)CN(C)C)nc2[nH]ccc12 | 0.969 | 0.848 | 0.622 | 0.756 | 0.725 | 0.674 | 0.718 | 0.762 | 0.681 | 0.275 | 0.314 | 0.844 | 1.11 | 0.202 | 0.816 | 0.371 | 0.554 | 0.557 | -0.557 | 0.74 |
| COc1ccc2c(Oc3ccc(NC(=O)c4c(C)n(CC(C)(C)O)n(-c5ccccc5)c4=O)nc3)ccnc2c1 | 0.474 | 0.67 | 0.738 | 0.841 | 0.59 | 0.47 | 0.651 | 0.668 | 1.06 | 0.761 | 0.654 | 0.97 | 1.09 | 0.522 | 0.696 | 0.745 | 0.439 | 0.67 | 0.649 | 0.949 |
| CCC[C@H](NC(=O)/C(C#N)=C/c1cccc(Br)n1)c1ccccc1 [Degrasyn (WP1130)] | 0.747 | 0.511 | 0.596 | 0.698 | 0.488 | 0.522 | 0.484 | 0.631 | 0.422 | 0.637 | 0.647 | 0.658 | 0.605 | 0.875 | 0.605 | 0.617 | 0.461 | 0.634 | 0.873 | 0.87 |
| CCN1CCN(Cc2ccc(Nc3ncc(F)c(-c4cc(F)c5nc(C)n(C(C)C)c5c4)n3)nc2)CC1 | -0.504 | -0.407 | -1.4 | -0.658 | 0.0936 | 0.323 | 0.536 | -0.38 | -1.81 | -1.35 | -1.01 | -1.53 | -0.309 | -0.989 | -0.21 | -0.902 | -0.359 | 0.0935 | -0.816 | -0.725 |
| Cn1cc(C2=C(c3ccc(Cl)cc3Cl)C(=O)NC2=O)c2ccccc21 | 0.645 | 0.673 | 0.509 | 0.271 | 0.539 | 0.315 | 0.489 | 0.595 | 0.978 | 0.546 | 0.288 | 0.58 | 0.986 | 0.41 | 1.56 | 0.883 | 0.394 | 1.71 | 0.898 | 1.14 |
| Cc1cnc(Nc2ccc(N3CCN(C)CC3)cc2)nc1Nc1cccc(S(=O)(=O)NC(C)(C)C)c1 | 0.26 | 0.301 | -0.386 | -0.105 | 0.0652 | 0.636 | 0.723 | 0.0765 | -0.537 | -0.748 | -0.187 | 0.48 | -0.202 | -0.235 | -0.874 | -0.826 | 0.582 | -0.49 | 0.138 | -1.06 |
| CC(C)n1nc(-c2cc3cc(O)ccc3[nH]2)c2c(N)ncnc21 | -1.16 | -1.73 | 0.503 | -0.442 | -0.455 | -0.588 | -0.889 | -2.47 | 0.0236 | -0.472 | -0.108 | -1.89 | 0.651 | -1.43 | -1.48 | -0.616 | 0.6 | -1.67 | -0.249 | -1.11 |
| CCN(CC)CCCC(C)Nc1nc(C)cc(Nc2ccc3nc(C)cc(N)c3c2)n1 (stereo not given) | 0.576 | 0.631 | 0.434 | 0.649 | 0.516 | 0.292 | 0.411 | 0.474 | 0.873 | 0.795 | 0.824 | 0.705 | 0.842 | 0.647 | 1.01 | 0.832 | 0.408 | 0.853 | 0.563 | 1 |
| C=CC(=O)Nc1cc(Nc2nccc(-c3cn(C)c4ccccc34)n2)c(OC)cc1N(C)CCN(C)C | 0.0191 | 0.325 | -0.867 | -1.55 | -1.43 | 0.299 | 0.516 | 0.563 | 0.338 | 0.726 | 0.456 | -1.14 | -1.69 | 0.897 | -0.0104 | -0.209 | 0.39 | -0.215 | -0.883 | 0.333 |
| CN1CCN(C2CCN(C(=O)Nc3cc(Oc4ccc(NC(=O)C5(C(=O)Nc6ccc(F)cc6)CC5)c(F)c4)ccn3)CC2)CC1 [Golvatinib (E7050)] | 1.08 | 0.978 | 1.09 | 1.67 | 0.874 | 0.698 | 0.887 | 0.674 | 0.871 | 0.626 | 0.529 | 1.02 | 1.25 | 0.837 | 0.734 | 0.983 | 0.683 | 0.258 | 1.5 | -1.01 |
| C=CC(=O)Nc1ccc2ncnc(Nc3cccc(Br)c3)c2c1 | -0.0339 | 0.294 | -0.388 | -1.37 | -1.24 | 0.358 | 0.194 | 0.322 | 0.543 | 0.229 | -0.0229 | -0.362 | -1.05 | -0.243 | 0.887 | -0.773 | 0.133 | 1.17 | -0.161 | 1.38 |
| O=C(Nc1c[nH]nc1-c1nc2ccc(CN3CCOCC3)cc2[nH]1)NC1CC1 | -1.11 | -2.09 | -0.994 | -0.885 | -1.19 | -3.61 | -1.43 | -0.732 | -1.03 | -0.677 | 0.0696 | -1.33 | -1.82 | -1.11 | -0.954 | 0.95 | 0.115 | -1.48 | 0.41 | -1.17 |
| COc1ccc(-c2ccc3c(N4CCOCC4)nc(N4C[C@@H](C)O[C@@H](C)C4)nc3n2)cc1CO | -1.33 | -1.55 | -0.00892 | 0.167 | -0.839 | 0.0938 | -1.01 | -1.75 | -1.15 | -1.13 | -1.31 | -1.24 | -1.21 | -1.5 | -1.77 | -0.851 | -0.119 | -2.06 | -1.06 | -1.69 |
| O=c1cc(-c2cccc3c2Sc2ccccc2S3)oc(N2CCOCC2)c1 | 1.01 | 0.619 | -2.22 | -0.681 | -2.6 | 0.343 | -2.17 | 0.483 | 0.899 | 0.577 | -2.31 | 0.109 | 0.847 | -0.515 | 0.979 | 0.719 | -2.53 | 0.527 | 0.221 | 0.957 |
| Cc1cc2c(F)c(Oc3ncnn4cc(OC[C@@H](C)OC(=O)[C@H](C)N)c(C)c34)ccc2[nH]1 | 0.486 | 0.123 | -2.05 | 0.543 | -1.81 | 0.504 | -1.61 | 0.508 | 0.799 | 0.813 | -1.76 | 0.498 | 0.879 | -0.856 | 0.119 | 0.603 | -2.76 | -0.209 | 0.188 | 0.275 |
